Each structure is given as a SMILES string. In all, about 310,000 compounds went through this assay and about 2,200 (0.71%) showed an effect of 50% or more. The effect is printed as a negative number. This is one part of the list.

Chain of human ether-à-go-go-related gene (hERG) potassium channel (Q12809 whole entry, looked up): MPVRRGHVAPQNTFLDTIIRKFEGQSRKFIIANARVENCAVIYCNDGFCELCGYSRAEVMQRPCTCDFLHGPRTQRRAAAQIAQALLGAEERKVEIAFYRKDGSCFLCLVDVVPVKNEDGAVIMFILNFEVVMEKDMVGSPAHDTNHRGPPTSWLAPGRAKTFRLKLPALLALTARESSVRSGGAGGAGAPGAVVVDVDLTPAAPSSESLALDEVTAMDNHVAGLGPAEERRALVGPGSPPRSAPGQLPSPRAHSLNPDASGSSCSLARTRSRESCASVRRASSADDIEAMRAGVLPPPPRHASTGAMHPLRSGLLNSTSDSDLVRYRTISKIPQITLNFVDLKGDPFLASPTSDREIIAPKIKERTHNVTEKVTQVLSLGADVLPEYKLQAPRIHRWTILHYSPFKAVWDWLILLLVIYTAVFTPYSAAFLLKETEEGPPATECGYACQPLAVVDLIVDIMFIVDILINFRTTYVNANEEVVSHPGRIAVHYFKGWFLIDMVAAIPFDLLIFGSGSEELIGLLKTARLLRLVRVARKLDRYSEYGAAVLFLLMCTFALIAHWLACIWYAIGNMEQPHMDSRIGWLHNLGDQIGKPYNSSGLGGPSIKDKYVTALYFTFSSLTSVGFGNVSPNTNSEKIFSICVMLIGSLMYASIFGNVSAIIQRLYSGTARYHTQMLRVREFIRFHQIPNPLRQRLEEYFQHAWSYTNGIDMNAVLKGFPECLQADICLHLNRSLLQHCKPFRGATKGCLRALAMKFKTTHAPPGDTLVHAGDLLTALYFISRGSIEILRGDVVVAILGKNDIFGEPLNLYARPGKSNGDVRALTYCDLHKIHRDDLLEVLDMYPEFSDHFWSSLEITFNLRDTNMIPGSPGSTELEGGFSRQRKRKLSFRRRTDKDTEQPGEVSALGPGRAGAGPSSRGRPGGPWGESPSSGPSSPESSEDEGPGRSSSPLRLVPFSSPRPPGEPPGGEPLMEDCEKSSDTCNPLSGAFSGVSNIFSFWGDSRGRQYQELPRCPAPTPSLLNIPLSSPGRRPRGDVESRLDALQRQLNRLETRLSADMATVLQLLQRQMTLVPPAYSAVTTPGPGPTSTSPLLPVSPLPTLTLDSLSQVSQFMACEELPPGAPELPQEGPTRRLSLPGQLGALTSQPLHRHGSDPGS

This assay concerns the target human ether-à-go-go-related gene (hERG) potassium channel (human, UniProt Q12809). In words: primary screen, population patch clamp on CHO cells stably expressing hERG.
Consider `COCCn1c(SCC(=O)Nc2cc(C)nn2-c2ccccc2)nnc1-c1ccncc1`, for which the “hERG current change (%, negative = inhibition) at 1uM” value is -4.86%.

As to `CC1CC(C)CN(c2ccc(S(=O)(=O)N3CCOCC3)cc2)C1` (centres unmarked), the “hERG current change (%, negative = inhibition) at 1uM” value is 17.2%.

For the compound `COc1ccc(C(C(=O)NC2CCCCC2)N(C(=O)c2ccco2)c2ccc(-n3cnnn3)c(C)c2)cc1` (centres unmarked), the “hERG current change (%, negative = inhibition) at 1uM” value is given as 8.84%.

With `Cc1c(OC(C)C(=O)N2C[C@H]3C[C@@H](C2)c2cccc(=O)n2C3)ccc2c3c(c(=O)oc12)CCC3` (some centres unmarked), the “hERG current change (%, negative = inhibition) at 1uM” value came to 8.62%.

`CC(=O)Nc1ccc(C(=O)N(C)c2ccccc2)cc1`: the “hERG current change (%, negative = inhibition) at 1uM” value is 11.9%.

Turning to `N#CC1=C(N)Oc2n[nH]c(-c3cccs3)c2C1c1ccoc1` (centres unmarked), the “hERG current change (%, negative = inhibition) at 1uM” value is -2.93%.

For the compound `CCOC(=O)N1CCC(N2C(=O)c3ccccc3C2Nc2cccnc2)CC1` (centres unmarked), the “hERG current change (%, negative = inhibition) at 1uM” value was 7.46%.

Consider `Nn1c(SCc2ccccc2F)nnc1-c1cccnc1`, for which the “hERG current change (%, negative = inhibition) at 1uM” value was 25%.

For `N#Cc1c(N)n(CCCN2CCOCC2)c2nc3ccccc3nc12`, the “hERG current change (%, negative = inhibition) at 1uM” value was -3.85%.

Take `COc1ccc(/C=C/C(=O)c2cc(F)ccc2OC(=O)c2ccc(OC)c(OC)c2)cc1OC`: the “hERG current change (%, negative = inhibition) at 1uM” value worked out at 8.54%.

In the case of `CC(CN1CCCCC1)OC(=O)c1ccc(Cl)cc1.Cl` (centres unmarked), the “hERG current change (%, negative = inhibition) at 1uM” value is -8.36%.

For `COc1ccc(Cl)c(NC(=O)NCCN2CCN(c3ccccc3)CC2)c1`, the “hERG current change (%, negative = inhibition) at 1uM” value turned out to be 1.17%.

Take `COc1cc(C(=O)Oc2cc(N)n(S(=O)(=O)c3ccccc3)n2)cc(OC)c1OC`: the “hERG current change (%, negative = inhibition) at 1uM” value is given as 15.6%.

Consider `Cc1cc(C)c(S(N)(=O)=O)c(C)c1N(C)S(=O)(=O)c1ccccc1`, for which the “hERG current change (%, negative = inhibition) at 1uM” value amounted to 8.03%.

As to `Nc1ncnc2c1ncn2[C@@H]1O[C@@H]2COP(=O)([O-])O[C@H]2[C@H]1O.[Na+]`, the “hERG current change (%, negative = inhibition) at 1uM” value is listed as -26.4%.

`COc1ccc(Cl)cc1NS(=O)(=O)c1cccc(C(=O)NCC(C)(C)N2CCOCC2)c1`: the “hERG current change (%, negative = inhibition) at 1uM” value is 7.58%.

For `Cc1occc1C(=O)NC(C)C12CC3CC(CC(C3)C1)C2` (centres unmarked), the “hERG current change (%, negative = inhibition) at 1uM” value came out at 10.8%.

For `CC(=O)Nc1ccc(NC(=O)COC(=O)Cc2c[nH]c3ccccc23)cc1`, the “hERG current change (%, negative = inhibition) at 1uM” value is on record as 14.3%.

As to `CCc1ccc(N(C(=O)Cc2cccs2)C(C(=O)NC2CCCCC2)c2cn(C)nc2C)cc1` (centres unmarked), the “hERG current change (%, negative = inhibition) at 1uM” value is -9.69%.

Consider `COc1ccc(NC(=S)NC(=O)c2cncc(Br)c2)cc1`, for which the “hERG current change (%, negative = inhibition) at 1uM” value is 15.4%.

As to `O=C(NCCc1nnc2ccc(NCc3ccccc3Cl)nn12)c1ccccc1`, the “hERG current change (%, negative = inhibition) at 1uM” value is listed as 10.9%.

Turning to `CC1C(=O)Nc2ccccc2N1C(=O)c1ccc(F)cc1F` (centres unmarked), the “hERG current change (%, negative = inhibition) at 1uM” value is 12.1%.

Regarding `O=C(OCc1ccccc1F)c1cc2ccccc2cc1O`, the “hERG current change (%, negative = inhibition) at 1uM” value is 14.6%.

Values taken from publication PMC4336329 (PLoS ONE, 2015).
